# According to patent US11155580B2, “Modified proteins and methods of use thereof” (YALE UNIVERSITY, priority 2013, dated 2021):
# System: U2OS(GIGI) cells
# Assay: GIGI in lysates, stably transfected U2OS(GIGI) cells
# Type: cell-based
# Settings: Dex-labeled peptides, 24 h, read-out: EC50 (eGFP expression, GIGI)
# Source text: RFUs are expressed±standard deviation (Excel). The maximum induction level is defined as RFUmax. Data were processed using Kaleidagraph and GraphPad Prism software. RFU=([I530]/[I580])−([I′530]/[I′580]) (1)
# Y=Ymin+(Ymax−Ymin)/(1+10^logEC50-X) (2)
row,Substance,EC50
1,K^DexFACDICGRKFAISSNLNSHTKIHTP (KFACDICGRKFAISSNLNSHTKIHTP; N-terminal dexamethasone-labeled Lys) [ZFN2^Dex],0.0767 µM
2,K^DexFACDICGRKFATSGNLTRHTKIHLR (KFACDICGRKFATSGNLTRHTKIHLR; N-terminal dexamethasone-labeled Lys) [ZFN4^Dex],0.0713 µM
3,K^DexFQCRICMRNFSDRSNLSRHIRTHTP (KFQCRICMRNFSDRSNLSRHIRTHTP; N-terminal dexamethasone-labeled Lys) [ZFN1^Dex],0.0735 µM
4,K^DexFQCRICMRNFSRSDNLARHIRTHTP (KFQCRICMRNFSRSDNLARHIRTHTP; N-terminal dexamethasone-labeled Lys) [ZFN3^Dex],0.0856 µM
